Reference: PubChem BioAssay AID485313 (National Center for Advancing Translational Sciences (NCATS), 2010)
Hit rate of the full screen: of about 320,000 compounds, about 7,600 (2.4%) were called active. This list was built around the results that the source calls inconclusive (neither active nor inactive); the mix of calls is not that of the screen. Calls come from the whole dose curve; as a rule, active = well fitted activation curve with a large enough effect; inconclusive = small, poorly fitted or top-dose-only effect; inactive = no such curve, though single readings can be large or run the other way. Potencies of inconclusive entries are left out as doubtful fits.

experiment: qHTS Assay for NPC1 Promoter Activators; conditions: Huh7 NPC1 promoter luciferase reporter, 24 h; series mostly up to 9.22 µM; note: nearly all actives have a fitted effect of over 60% in size;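 for activation: reporter is driven by a mutant NPC1 promoter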
How it was run: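 Compounds in DMSO were transferred onto Huh7 NPC1-luciferase reporter cells pre-incubated 2 h; after 24 h at 37 °C, Amplite reagent was dispensed and luminescence recorded 10 min later.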
Potency is the fitted concentration of half-maximal effect; tags give direction and shape of the fitted curve.

SMILES	Potency
Cc1ccc2oc(-c3cccc(NC(=O)/C=C/c4cccc([N+](=O)[O-])c4)c3C)nc2c1	inconclusive [activator, single point]
Cc1cccc(C)c1Nc1nnc(SC(C)C(=O)Nc2c(C)n(C)n(-c3ccccc3)c2=O)s1 (stereo unspecified)	inactive
Cc1ccc(-c2cc(N)n(-c3ccccc3)n2)cc1	active: 1.12 µM
Cn1cccc1C(=O)OCC(=O)Nc1ccc2c(c1)CCC2	inconclusive [activator, single point]
O=C(Nc1nc2ccccc2[nH]1)c1ccc(F)cc1	active: 0.447 µM
Cc1ccc(-c2nc(S(=O)(=O)c3ccc(C)cc3)c(N(C)C)o2)cc1	inconclusive [activator, single point]
Cc1ccccc1-c1nc(-c2ccccn2)no1	inconclusive [activator, full curve, poor fit]
O=C(c1noc2c1CCCC2)N1CCc2ccccc2C1	inconclusive [activator, single point]
COc1ccc(C(=O)CCc2ccccc2)cc1	inconclusive [activator, single point]
Cc1c(/C=N/Nc2nc3ccccc3[nH]2)c2ccccc2n1C	inconclusive [activator, partial curve]
Cc1cccc2nc(=S)n(C(=O)c3ccco3)n12	inconclusive [activator, single point]
CCC(=O)Nc1cccc(NC(=O)c2ccc3c(c2)OCCO3)c1	inconclusive [activator, partial curve]
CC(C)c1ccc(C(=O)Nc2cccnc2)cc1	active: 1.58 µM
Cc1ccc(-n2[nH]c(C)c(C=Nc3cc(C)ccn3)c2=O)cc1	inactive
COc1ccc(NC(=O)NC2CCCc3ccccc32)cc1OC (stereo unspecified)	inconclusive [activator, single point]
COc1ccc(C(=O)Cc2ccc(F)cc2)c(OC)c1	inconclusive [activator, single point]
O=S(=O)(c1ccccc1)c1nc(-c2ccco2)oc1NCCCn1ccnc1	inactive
CN1CCN(S(=O)(=O)Cc2ccc(Cl)cc2)CC1	inactive
COc1ccc(-c2cc(-c3cc(OC)ccc3O)[nH]n2)cc1	inconclusive [activator, single point]
Nc1cccc(-c2nc3ncccc3o2)c1	inconclusive [activator, single point]
Cc1nnc(NC(=O)c2cc3ccccc3o2)s1	inconclusive [activator, single point]
CC1=NN(c2ccccc2)C(=O)C1N=Nc1cccc(O)c1 (stereo unspecified)	inconclusive [activator, single point]
O=C(Nc1ccccc1Cl)NC1CCCCCCC1	inconclusive [activator, single point]
O=C(/C=C/c1ccc2c(c1)OCCO2)c1ccc(O)cc1	inconclusive [activator, single point]
CC(C)COc1cccc(C(=O)Nc2ccc(CN3CCOCC3)cc2)c1	inactive
O=C(O)COc1ccc(/C=C/C(=O)c2ccc(C3CCCCC3)cc2)cc1	inconclusive [activator, single point]

SMILES	Potency
CNCc1cn2cc(Cl)ccc2n1	inactive
CC(C)Cn1c([N+](=O)[O-])nc2c1c(=O)[nH]c(=O)n2C	inactive
CC1CC(C)CN(C(=O)CNC(=O)c2ccc3ccccc3c2)C1 (stereo unspecified)	inactive
O=C(Nc1cccc(F)c1)c1ccccc1	inconclusive [activator, partial curve]
O=c1cc(NCc2ccco2)[nH]c(=O)n1-c1ccc(Br)cc1	inactive
Cc1cc(C(=O)Nc2cccc(-c3ccc(N4CCOCC4)nn3)c2)ccc1[N+](=O)[O-]	inconclusive [activator, partial curve]
O=C(/C=C/c1ccccc1Cl)Nc1cccc(O)c1	inconclusive [activator, single point]
Nc1nc2nccc(-c3ccc(Cl)cc3)n2n1	inconclusive [activator, single point]
Cc1c(/C(O)=C2\C(=O)C(=O)N(CCN(C)C)C2c2ccco2)cnn1-c1ccccc1 (stereo unspecified)	inconclusive [activator, partial curve]
O=C(NN1CC(C(=O)OCc2ccc(Cl)cc2Cl)CC1=O)c1ccccc1 (stereo unspecified)	inactive
O=S(=O)(Nc1nc2ccccc2nc1Cl)c1cccc(C(F)(F)F)c1	inactive
Cc1ccccc1C(=O)N/N=C/c1ccccn1	active: 3.16 µM
COc1cccc(COC(=O)C2CC(=O)N(Cc3ccc(C)cc3)C2)c1OC (stereo unspecified)	inactive
Cc1cccc(NC(=O)NCc2ccc3c(c2)OCO3)c1	inconclusive [activator, partial curve]
Cc1cc(N2CCOCC2)ccc1/C=C1\NC(=O)N(CC(=O)Nc2ccc(F)cc2)C1=O	inconclusive [activator, partial curve]
O=C(COC(=O)c1cc2ccccc2oc1=O)Nc1ccc(F)cc1F	active: 2.24 µM
COc1ccc(-c2cn(Cc3ccc(C(=O)c4ccccc4)cc3)nn2)cc1	inconclusive [activator, partial curve]
CN(C)C1=NCCN1CC1CCCCC1	inactive
Cc1ccc(O)c(NC(=S)NC(=O)CC(C)C)c1	inconclusive [activator, single point]
O=C(CSc1ccc(-c2cccs2)nn1)c1cccs1	inconclusive [activator, single point]
COc1ccc(C(=O)OCC(=O)c2c[nH]c3ccccc23)cc1OC	inactive
CC(=O)Nc1ccc(NC(=O)C(C)OC(=O)c2ccccc2Sc2ccccc2C#N)cc1 (stereo unspecified)	inactive
Cc1ccc(NC(=O)c2ccc(NC(=O)c3ccccc3)cc2)cc1C	inconclusive [activator, partial curve]
O=C(NNc1nc2cc3c(cc2s1)OCCO3)c1ccccc1	inconclusive [activator, partial curve]
COc1ccc(Cl)cc1C(=O)OCC(=O)NCc1cccs1	inactive
CC(C)c1ccc(NC2=NCC(=O)N2Cc2cccs2)cc1	inactive

SMILES	Potency
COc1ccc(C(=O)Oc2cc(C)[nH]c(=O)c2[N+](=O)[O-])c(OC)c1	inactive
CC1(C)CC(=O)C(C2C3=C(CC(C)(C)CC3=O)Oc3ccc4ccccc4c32)C(=O)C1 (stereo unspecified)	inconclusive [activator, single point]
O=C(CN(Cc1ccc(Br)cc1)S(=O)(=O)c1ccccc1)NCC1CCCO1 (stereo unspecified)	inactive
COc1cc2cccc(OC)c(=O)c2c(OC)c1OC	inconclusive [activator, partial curve]
Cc1ccc(CSc2ccc(-c3ccc4c(c3)OCO4)nn2)cc1	inactive
CN1C=CC=C/C1=C1/N=C(c2ccccc2)OC1=O	inconclusive [activator, single point]
COc1cccc(/C=N/N2CCN(c3ccccc3OC)CC2)c1	inconclusive [activator, partial curve]
Cc1ccc(NC(=O)c2ccc(OC(=O)CCN3C(=O)c4ccccc4C3=O)cc2)cc1	active: 3.16 µM
N/C(=N\OC(=O)c1ccc(F)cc1)c1cccc([N+](=O)[O-])c1	inconclusive [activator, single point]
Cc1ccc(C(=O)Nc2ccn(C)n2)cc1	inconclusive [activator, partial curve]
O=C(Nc1ccc2[nH]ncc2c1)c1ccccc1Br	active: 3.16 µM
O=C(Nc1cccc2ccccc12)c1ccccc1	inconclusive [activator, single point]
O=C(Nc1ccccc1)c1ccc(-c2ccc([N+](=O)[O-])cc2)o1	inconclusive [activator, partial curve]
COc1ccc(C2CC(c3ccc(OC)c(OC)c3)=NN2S(C)(=O)=O)cc1 (stereo unspecified)	active: 1 µM
FC(F)(F)COc1cc(-c2nnc(SCc3ccccc3)n2Cc2ccco2)cc(OCC(F)(F)F)n1	inconclusive [activator, single point]
Cn1nc(C(=O)Nc2nc3ccccc3[nH]2)ccc1=O	inconclusive [activator, single point]
Cn1c(=N)n(CC(=O)c2ccccc2)c2ccccc21	active: 3.16 µM
CCOc1ccccc1NC(=O)Nc1ccc(Cl)cc1	inconclusive [activator, partial curve]
COCC(=O)N(Cc1cc2cc(OC)ccc2[nH]c1=O)c1ccccc1OC	inconclusive [activator, single point]
O=C(NNC(=O)C1CC2CCC1C2)c1sc2ccccc2c1Cl (stereo unspecified)	inconclusive [activator, single point]
Cc1cc(C(=O)CSc2nnc3ccccn23)c(C)n1-c1ccccc1	inconclusive [activator, partial curve]
O=C(Nc1ncc(Cc2ccccc2)s1)C1COc2ccccc2O1 (stereo unspecified)	active: 1.58 µM
Cc1ccc(NC(=O)CN(C)C(=O)CNC(=O)c2sc3ccccc3c2Cl)cc1	inconclusive [activator, single point]
COc1cccc(OCCSc2nc(N)cc(N)n2)c1	inconclusive [activator, single point]
